In patent US9750727B2 (priority 2010, dated 2017):

Tested on: peritoneal macrophages (pMP)
Parameters: species or system mice
Conditions: mouse, in vivo

| SMILES | decrease of pMP activity |
| --- | --- |
| CC[C@@H](CO)NCCN[C@@H](CC)CO [Ethambutol, ethambutol] | 1.3 fold |
| NNC(=O)c1ccncc1 [Isoniazid, isonicotinic acid hydrazide] | 1.2 fold |
